In the BET-seq Pho4 binding data (Le et al. 2018):
The other results are listed elsewhere or left out. These are noisy estimates, calculated here from bound and input reads.

The sequences below were run against T1, Pho4 (S. cerevisiae) (UniProt P07270) (assay: relative binding free energy (BET-seq); higher = weaker binding). Conditions: reference: library average.
T1 sequence: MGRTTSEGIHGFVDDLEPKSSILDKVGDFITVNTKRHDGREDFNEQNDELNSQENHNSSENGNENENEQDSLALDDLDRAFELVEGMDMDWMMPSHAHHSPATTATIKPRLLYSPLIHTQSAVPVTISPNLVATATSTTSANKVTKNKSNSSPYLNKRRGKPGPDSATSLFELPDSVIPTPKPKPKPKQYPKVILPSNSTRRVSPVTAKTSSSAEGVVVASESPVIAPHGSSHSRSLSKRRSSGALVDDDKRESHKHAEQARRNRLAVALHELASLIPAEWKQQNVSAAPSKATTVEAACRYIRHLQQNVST

Relative binding free energy, 0.18 kcal/mol:
TTACTCACGTGTGTTG, AATTTCACGTGTTTTG

Relative binding free energy, 0.33 kcal/mol:
TCTTTCACGTGGGAGT, TGCATCACGTGTTTTA

Relative binding free energy, 0.06 kcal/mol:
AGTTACACGTGGTGTC, TCTGTCACGTGTGCGT, CGGTGCACGTGATGGG, TGTATCACGTGTATTG, TGTAGCACGTGACGCT, TTAGTCACGTGTTTGC, AATGCCACGTGAGGGT, TCTGGCACGTGATGGA

Relative binding free energy, -0.12 kcal/mol:
GGTAGCACGTGCATGT, TGGCGCACGTGCAGGA, TAGATCACGTGGGTCG, TAATGCACGTGTTGTC

Relative binding free energy, 0.17 kcal/mol:
ATTTTCACGTGGTAAA, TTGATCACGTGGTTGC, TTTGTCACGTGAGGCA, CGATTCACGTGGGTGG, CTCGTCACGTGTGTTG, ATACTCACGTGGAGTG, GTTTGCACGTGGAGGC, TTTTGCACGTGTTGGC, AGTATCACGTGAATTG

Relative binding free energy, 0.2 kcal/mol:
CATTTCACGTGGGTTC, GTACGCACGTGAAGTG, GATGTCACGTGTAAGG

Relative binding free energy, 0.03 kcal/mol:
GAAAGCACGTGCGGTT, TGTGGCACGTGGATTA, GTGTGCACGTGTACTA

Relative binding free energy, 0.1 kcal/mol:
GGTTACACGTGCAGAG, ACGCTCACGTGGGTTT, GGGGACACGTGTTAAA, ATTGTCACGTGTGAGT

Relative binding free energy, -0.15 kcal/mol:
TTCTGCACGTGGGTAT

Relative binding free energy, -0.1 kcal/mol:
TACGTCACGTGGTGAG, TGCGGCACGTGCTGGG

Relative binding free energy, 0.26 kcal/mol:
TTGTTCACGTGCTATT, TTAATCACGTGATGCT, TTGGACACGTGTAATT, TCGTTCACGTGGGGTA

Relative binding free energy, 0.13 kcal/mol:
GTTGTCACGTGCAGTT, GTCTGCACGTGAGGCG, TGTCACACGTGGATGA, TGGCACACGTGAGCGT, AGTTACACGTGTCGAG, TTTAACACGTGTATCG

Relative binding free energy, 0.02 kcal/mol:
AACTGCACGTGGAGTG, AGGGACACGTGTAGTT, TATACCACGTGGTTTT, GAGGTCACGTGGGAGC, GGTGACACGTGTGCGG, TGCCACACGTGGTTTG, GAGGGCACGTGTGGAG

Relative binding free energy, -0.19 kcal/mol:
GTGTGCACGTGGGCGT, GTCTGCACGTGGGCGG, TTTGGCACGTGTATAT, CTGTGCACGTGGTATG, AGATGCACGTGCTTGG, TAGGCCACGTGTTGAT

Relative binding free energy, 0.46 kcal/mol:
ATTTTCACGTGAGATC

Relative binding free energy, 0.04 kcal/mol:
TTTCGCACGTGAGTTG, GACAGCACGTGTGGGG, TCTATCACGTGGGGGC

Relative binding free energy, -0.07 kcal/mol:
GTTAACACGTGGGAGT, GGGGGCACGTGGTGAA, TAGTCCACGTGGGCGT, TTCTGCACGTGTCGTG, TGGGCCACGTGCGAGT

Relative binding free energy, 0.27 kcal/mol:
TATCTCACGTGTAGGT, GATGACACGTGATATG, AAATTCACGTGTAGGT

Relative binding free energy, 0.28 kcal/mol:
AGCAACACGTGAGGTG

Relative binding free energy, 0.12 kcal/mol:
GGCTACACGTGTAGGG, TGGTACACGTGTTAGA, CGTATCACGTGGTTTA, TGTATCACGTGGCGCT

Relative binding free energy, 0.16 kcal/mol:
GGGATCACGTGGGAGG, GCACGCACGTGAGGGT, AGGTACACGTGTAGTA

Relative binding free energy, -0.39 kcal/mol:
GGGGGCACGTGCGCTG

Relative binding free energy, 0.37 kcal/mol:
GGTCTCACGTGTCGGA

Relative binding free energy, 0.01 kcal/mol:
TGTTCCACGTGTAAGG, ATTATCACGTGGTGCA, TGTTGCACGTGTGTCG, AGTATCACGTGGCTTA, ATTAGCACGTGACGGT

Relative binding free energy, -0.24 kcal/mol:
CGTAGCACGTGGTGTT

Relative binding free energy, 0.5 kcal/mol:
GAGTTCACGTGTGAGA

Relative binding free energy, -0.2 kcal/mol:
GGAAGCACGTGGGGAT

Relative binding free energy, 0.61 kcal/mol:
GAGTTCACGTGAAAGT

Relative binding free energy, -0.11 kcal/mol:
GTAGGCACGTGCGTTA, AGAGCCACGTGGAGGT, CGTAGCACGTGGATTG, AGCGGCACGTGTAGTA, TTGAGCACGTGTCAGT

Relative binding free energy, -0.03 kcal/mol:
CGGGTCACGTGGTAGT, GTGTGCACGTGGTACT, TGTGGCACGTGTTCTT, ATTTACACGTGCGGTT, TCGTCCACGTGTGTGT, GGTGGCACGTGTTTAA

Relative binding free energy, -0.02 kcal/mol:
GGGGGCACGTGATAAT, CTTTGCACGTGCATGG, GTAGGCACGTGTTGAT, TTGACCACGTGTTTTT, AGACGCACGTGTTTTT, GACGGCACGTGGATTG

Relative binding free energy, 0.29 kcal/mol:
TAATTCACGTGCATTG, TTTCTCACGTGTGCGT, GATTTCACGTGGCAAG, AGAATCACGTGTGGCT, TGATGCACGTGAGGCA, GATCGCACGTGAGGTG

Relative binding free energy, -0.29 kcal/mol:
AAGAGCACGTGGTGTA

Relative binding free energy, 0.07 kcal/mol:
TAAGACACGTGGATAG, TGTAACACGTGGATCG

Relative binding free energy, -0.04 kcal/mol:
AGATGCACGTGGATTT, AAGAGCACGTGTTTGT

Relative binding free energy, 0 kcal/mol:
CTGTCCACGTGGGCGG, GCGTGCACGTGGTTCG, GTATGCACGTGGATAA, CATGGCACGTGATGGT, ATCGTCACGTGTTGAG

Relative binding free energy, 0.21 kcal/mol:
TTTAGCACGTGAATAG, ATTTTCACGTGTGCCG, GGTTTCACGTGCCGGT, CGCAGCACGTGATGTT

Relative binding free energy, 0.19 kcal/mol:
AGTTACACGTGATATT, TTAATCACGTGGTACT

Relative binding free energy, -0.09 kcal/mol:
CGGAGCACGTGGGTTA, CTAGGCACGTGGCAAG

Relative binding free energy, -0.31 kcal/mol:
CTAGGCACGTGGCTGG

Relative binding free energy, -0.16 kcal/mol:
TCGGGCACGTGGCATG, TGATACACGTGGGCAG, CGAGTCACGTGGGTGA

Relative binding free energy, 0.09 kcal/mol:
GAAAGCACGTGTGATG, ATCGACACGTGTGTGG, GGGTCCACGTGGAAGT

Relative binding free energy, 0.23 kcal/mol:
CGCTTCACGTGTGTTG

Relative binding free energy, -0.06 kcal/mol:
TGGGGCACGTGTCTGC, AAAGGCACGTGCTGAG

Relative binding free energy, 0.25 kcal/mol:
GGTATCACGTGGATGC, TTTTTCACGTGGACTT, AATGTCACGTGTCGGC

Relative binding free energy, -0.18 kcal/mol:
GGAAGCACGTGGTGCG

Relative binding free energy, -0.25 kcal/mol:
TGGAGCACGTGGGTTG, TTCGGCACGTGGTTTA

Relative binding free energy, -0.23 kcal/mol:
ACGTGCACGTGCGGTG, GTGAGCACGTGGGGTG, TAGGGCACGTGGCGCA, CGGGGCACGTGGTAAG

Relative binding free energy, 0.14 kcal/mol:
CTCGTCACGTGTGTGG, AGTGTCACGTGTATCA, GTGAACACGTGCGGTT, TGAAGCACGTGACGTG, ATGGGCACGTGAAGTT, TTTCTCACGTGCTGTG, TAATACACGTGTAATG, GCGGACACGTGTAGGG, GTTTACACGTGGATCT, TTCTACACGTGGTGGC, GGTACCACGTGTATGT

Relative binding free energy, 0.05 kcal/mol:
TCTTACACGTGCGGGT, TGCATCACGTGGGTGG, ATTGACACGTGTTATA, GGTACCACGTGTGAGG, GAAGGCACGTGTTTCT, TTGCACACGTGTAGTT, TGGTGCACGTGTGGAT

Relative binding free energy, 0.48 kcal/mol:
CATTTCACGTGTGAGT

Relative binding free energy, -0.13 kcal/mol:
TATAACACGTGGTTGG

Relative binding free energy, -0.3 kcal/mol:
TGGGCCACGTGGGCGC, TTTCGCACGTGGGTCT

Relative binding free energy, 0.11 kcal/mol:
TAGATCACGTGTTCAT, ACGATCACGTGTTTGT, GCTATCACGTGGGTGT, ATATGCACGTGAGGTA

Relative binding free energy, -0.01 kcal/mol:
GATGTCACGTGGTAGA, GGTAACACGTGGTCGA, GAGTGCACGTGCGGTA, AGTGTCACGTGGTCCT, AGTGTCACGTGCGGAG

Relative binding free energy, 0.08 kcal/mol:
TTGTACACGTGCTGGG, TGATACACGTGTATTA, GTGAGCACGTGTGGTG, TCGAGCACGTGAGTGT, GAGTACACGTGTGGCG

Relative binding free energy, 0.38 kcal/mol:
TGGTTCACGTGTGTTA

Relative binding free energy, 0.24 kcal/mol:
AATTTCACGTGGTTTG, CTTTACACGTGTGGGG, TGGATCACGTGACAGG, ATCTTCACGTGAGGGG, GTCTACACGTGTGTTT

Relative binding free energy, -0.08 kcal/mol:
TGGGACACGTGGCTTA, GTGGGCACGTGGTTGT, GTAAGCACGTGTTTGC, AGGGGCACGTGTTTTA, CGGCGCACGTGGGGAA

Relative binding free energy, 0.32 kcal/mol:
TGTTTCACGTGTTAGG, ATGTTCACGTGTTAGG

Relative binding free energy, 0.36 kcal/mol:
TCTTACACGTGAGGGG

Relative binding free energy, 0.15 kcal/mol:
TTTATCACGTGTGCAT, GGAAACACGTGATGTT, TCTATCACGTGTGGAG, GTTGACACGTGATTGG, TTTTACACGTGTCAGG, TAGGTCACGTGTGGTA

Relative binding free energy, -0.34 kcal/mol:
TTGACCACGTGGGGGA

Relative binding free energy, -0.22 kcal/mol:
CGTGGCACGTGGTGAA, GTGGGCACGTGCGAGA, AAAGGCACGTGTTATT

Relative binding free energy, -0.05 kcal/mol:
TCTTGCACGTGCTGGG, CAGTGCACGTGCGGGT, CTTTGCACGTGTGTGG, AGTTGCACGTGCAAGG, AGGAACACGTGTTATG

Relative binding free energy, 0.35 kcal/mol:
AATTTCACGTGATATG, CTTTTCACGTGTATGT, GTATTCACGTGTAAGG, GAGTTCACGTGTCGTT

Relative binding free energy, 0.3 kcal/mol:
CGGTTCACGTGTGAGA, GAAATCACGTGTGGGA, GCGGTCACGTGAGGTA, ATTCTCACGTGTCTGG

Relative binding free energy, 0.34 kcal/mol:
GGATTCACGTGAGATG, TTGATCACGTGAGCGG

Relative binding free energy, -0.14 kcal/mol:
TGTAACACGTGTTCTG, ATTGGCACGTGCTATG
